{"source": "PubChem BioAssay (NCI)", "note": "Where “and” joins values, the source holds several entries; their conditions need not be identical. Identical values can stand only once.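 Five compound concentrations were applied to cells in 96-well plates for 48 hours; endpoints were derived by simple linear interpolation of the resulting dose-response curve. GI50 marks 50% less growth. At the TGI there is no net growth.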 Peptide text beside a SMILES is read from it.", "data": [{"system": "NCI-H322M lung", "assay": "inhibition of tumour cell growth, NCI panel, 48 h", "values": [{"smiles": "C=CC(=O)N1CCN([C@@H](CC2CC2)c2ccc([C@H](C)Nc3ncc4c(n3)N(CC)C(=O)OC4)cc2)CC1", "GI50": "11.4 µM", "TGI": "24.3 µM"}, {"smiles": "COc1ccc(C(O)C(c2ccc(OCc3ccccc3)cc2)c2ccc(OCc3ccccc3)cc2)cc1", "note": "(stereo not drawn)", "TGI": "> 100 µM"}, {"smiles": "CC(=O)Nc1ccc(CC[C@H]2CCC/C=C/[C@@H]3C[C@H](O)C[C@H]3[C@H](O)/C=C/C(=O)O2)cc1", "GI50": "0.204 µM", "TGI": "5.19 µM"}, {"smiles": "COCCn1c(Nc2ccc(C(=O)NO)cc2)nc2ccccc21", "GI50": "3.48 µM", "TGI": "> 100 µM"}, {"smiles": "Cc1cc(C)c2c(-c3ccccc3)cc(=O)[nH]c2c1", "TGI": "> 100 µM"}, {"smiles": "Cn1c2ccccc2n2c(=O)c(-c3ccc(Cl)cc3)nnc12", "TGI": "> 100 µM"}, {"smiles": "Cc1c2ccccc2c(/C=N/NC(=O)CSCC(=O)N/N=C/c2c3ccccc3c(C)c3ccccc23)c2ccccc12", "TGI": "97.2 µM"}, {"smiles": "CC(C)(C)OC(=O)C1C(=O)NC(=O)CC1C(OCc1ccccc1)C(OCc1ccccc1)C(COCc1ccccc1)OCc1ccccc1", "note": "(stereo not drawn)", "TGI": "> 100 µM"}, {"smiles": "CN(C(=O)Cc1cc(Cl)c(Cl)cc1NC(=O)CCCN)[C@H]1CCCC[C@@H]1N1CCCC1", "TGI": "> 100 µM"}, {"smiles": "CC(C)N1CCOC(c2ccc(O)c(O)c2)C1", "note": "(stereo not drawn)", "TGI": "> 100 µM"}, {"smiles": "O=c1cc(-c2cccc(Cl)c2)[nH]c2cc3c(cc12)OCO3", "GI50": "0.96 µM", "TGI": "75 µM and > 100 µM"}, {"smiles": "COc1ccc(Nc2nc3ccccc3nc2-c2cccs2)cc1OC", "TGI": "> 10 µM"}, {"smiles": "O=C1c2cccnc2S(=O)(=O)N1c1ccc(Br)cc1", "TGI": "> 100 µM"}, {"smiles": "NCC(=O)N[C@H]1c2ccsc2/C(=N/O)[C@H]1O", "TGI": "> 100 µM"}, {"smiles": "[O-]c1ccccc1C=NCCN=Cc1ccccc1[O-].[O]=[U+2]=[O]", "GI50": "31.3 µM", "TGI": "> 100 µM"}, {"smiles": "Cc1cccc(-c2nc(=S)[nH][nH]2)c1", "TGI": "> 100 µM"}, {"smiles": "C/C(=N/NC(=S)N1CCCCCC1)c1cccc(/C(C)=N\\NC(=S)N2CCCCCC2)n1", "TGI": "2.95 µM"}, {"smiles": "CCOC(=O)c1nc2ccccc2nc1Nc1cc(OC)c(OC)c(OC)c1", "TGI": "> 100 µM"}, {"smiles": "CC(C)Cn1cnc2c(N)nc3ccccc3c21", "GI50": "99 µM", "TGI": "> 100 µM"}, {"smiles": "Cc1ccc(N=NC(=Nc2ccc(F)cc2)c2ccc(N(CCC#N)CCC#N)cc2)cc1", "TGI": "> 100 µM"}, {"smiles": "COC1CCC(O)C(CO)O1", "note": "(stereo not drawn)", "TGI": "> 100 µM"}, {"smiles": "CCN(CC)C(=O)c1cccc2c(OC)ccc(OC)c12", "TGI": "> 100 µM"}, {"smiles": "COc1ccc(C2c3cc4c(cc3OC(N3CCOCC3)C2C)OCO4)cc1OC", "note": "(stereo not drawn)", "TGI": "> 100 µM"}, {"smiles": "[N-]=[N+]=NC1C(Cl)C(=O)NC(=O)N1[C@H]1C[C@H](O)[C@@H](CO)O1", "note": "(stereo partly drawn)", "TGI": "> 100 µM"}, {"smiles": "CN1CCN(c2cc(F)c(NC3=C(Cl)C(=O)c4ncccc4C3=O)c(F)c2)CC1", "GI50": "13.9 µM", "TGI": "27.2 µM"}, {"smiles": "CCOc1ccc2nc3cc(N)ccc3c(N)c2c1", "GI50": "2.62 µM and 2.33 µM", "TGI": "12.4 µM and 8.84 µM"}, {"smiles": "CC(=O)N1N=C(c2ccccc2)NC(=O)C1c1cc(C)c(O)c(C)c1", "note": "(stereo not drawn)", "TGI": "80.1 µM"}, {"smiles": "CSC(=Nc1ccc([N+](=O)[O-])cc1C#N)NC(=O)c1ccccc1", "TGI": "> 100 µM"}, {"smiles": "CN(C)c1ccc(-c2c(C#N)c(-c3ccccc3)n(NS(=O)(=O)c3ccccc3)c(=O)c2C#N)cc1", "TGI": "> 100 µM"}, {"smiles": "O=C1O/C(=C(\\Br)c2ccc([N+](=O)[O-])cc2)c2ccccc21", "TGI": "> 100 µM"}, {"smiles": "COc1cc(-c2csc(NC(=O)Nc3ccc(Cl)cc3)n2)cc(OC)c1OC", "GI50": "2.76 µM", "TGI": "13 µM"}, {"smiles": "CC1(N2CCOCC2)CC2C(=[N+]1[O-])CCC/C2=N/O", "note": "(stereo not drawn)", "TGI": "> 100 µM"}, {"smiles": "CC(C)OC(=O)Nc1c([N+](=O)[O-])cc(C(F)(F)F)cc1[N+](=O)[O-]", "TGI": "> 100 µM"}, {"smiles": "CCCN1CCC(Oc2cc(Nc3nc(Nc4cccc(F)c4C(N)=O)c4cc[nH]c4n3)c(OC)cc2Cl)CC1", "GI50": "3.77 µM", "TGI": "7.55 µM"}, {"smiles": "N#Cc1nc2cc(Cl)c(Cl)cc2nc1-c1ccc(Cl)cc1", "GI50": "40.7 µM", "TGI": "> 80 µM"}, {"smiles": "COc1cccc(C2CC(C)(O)Oc3cc4c(cc32)OCO4)c1", "note": "(stereo not drawn)", "TGI": "> 100 µM"}, {"smiles": "CCOC(=O)N1CCC2(CC1)C[C@](Sc1ccccc1)(C(C)=O)[C@H](C)O2", "TGI": "> 100 µM"}, {"smiles": "C[C@]12CCC(=O)C=C1CC[C@@H]1[C@@H]2CC[C@]2(C)C(=O)/C(=C/c3ccc([N+](=O)[O-])cc3)C[C@@H]12", "TGI": "> 100 µM"}, {"smiles": "CC(C)(C)c1ccc(O)c(C(O)c2ccccn2)c1", "note": "(stereo not drawn)", "TGI": "> 100 µM"}, {"smiles": "NCCNCCNCc1c2ccccc2c(CNCCNCCN)c2ccccc12", "TGI": "85.7 µM"}, {"smiles": "COc1ccc2c(c1[N+](=O)[O-])CC[C@@H]1[C@@H]2CC[C@]2(C)C(=O)CC[C@@H]12", "GI50": "> 884 µM", "TGI": "> 1000 µM"}, {"smiles": "O=C1c2ccccc2C(=O)N1C/C=N/NS(=O)(=O)c1cccc([N+](=O)[O-])c1", "TGI": "> 100 µM"}, {"smiles": "CC1=NC2(C(=O)O)C3(C(=O)O)N=C(C)OC3(C(F)(F)F)C2(C(F)(F)F)O1", "note": "(stereo not drawn)", "TGI": "> 100 µM"}, {"smiles": "OC1C2CN3CCN(C2)CC1(c1ccccc1)C3", "note": "(stereo not drawn)", "TGI": "> 100 µM"}, {"smiles": "O=C(Nc1ccc(Nc2ccc3c(c2)C(=O)c2ccccc2C3=O)c2c1C(=O)c1ccccc1C2=O)c1ccccc1", "TGI": "> 100 µM"}, {"smiles": "Cc1cc[c]([Sb]2[O]C(CO)C(C(O)C(O)C(=O)O)[O]2)cc1", "note": "(stereo not drawn)", "GI50": "65.6 µM", "TGI": "> 100 µM"}, {"smiles": "COc1cc(/C=C2\\CC3C4CC=C5C[C@@H](O)CC[C@]5(C)C4CC[C@]3(C)\\C2=N\\O)cc(OC)c1OC", "note": "(stereo partly drawn)", "TGI": "> 100 µM"}, {"smiles": "COC(=O)C1=C(C(=O)OC)C23CC4CCC2(C(=O)C1O3)C4(C)C", "note": "(stereo not drawn)", "TGI": "> 100 µM"}, {"smiles": "CCC(C)[C@@H]1NC(=O)[C@@H]2CCCN2C(=O)C(CC(O)CCl)OC(=O)CCNC(=O)[C@H](C)N(C)C(=O)[C@H](C(C)C)N(C)C1=O", "note": "(stereo partly drawn) (HELM PEPTIDE1{[CCC(C)[C@H](N[*:1])C(=O)[*:2]].[meV].[meA].[bAla].[O=C(C(CC(O)CCl)O[*:1])[*:2]].P}$PEPTIDE1,PEPTIDE1,1:R1-6:R2$$$V2.0)", "TGI": "> 100 µM"}, {"smiles": "O=C1CN=C(c2ccccc2)c2ccncc2N1", "TGI": "> 100 µM"}, {"smiles": "Clc1ccc2c(NC3CCC(NC4CCCCC4)CC3)ccnc2c1", "note": "(stereo not drawn)", "GI50": "15 µM", "TGI": "41.8 µM"}, {"smiles": "CCCCCCCCCCCC1=NC(C)(C)CN1C(C)C", "GI50": "5.44 µM", "TGI": "18.4 µM"}, {"smiles": "O=C(O)C1CCCN1", "note": "(stereo not drawn)", "TGI": "> 100 µM"}, {"smiles": "COc1cc2c(c3nc4ccccc4nc13)-c1ccc(SC)c(=O)cc1[C@@H](NC(C)=O)CC2", "TGI": "> 100 µM"}, {"smiles": "COC(=O)/C(=C(/C)c1ccco1)P(=O)(OC)OC", "TGI": "> 100 µM"}, {"smiles": "Cc1cc2c3c(c1)S(=O)(=O)c1cc(Cl)ccc1N3CCC2", "TGI": "> 100 µM"}, {"smiles": "CCN(CC)CC(C(=O)Nc1c(C)cccc1C)/C(C)=N\\NC(=S)NN", "note": "(stereo not drawn)", "TGI": "> 100 µM"}, {"smiles": "CCCSc1ccc2[nH]c(N3C(=O)/C(=C/c4ccc(O)c(OC)c4)N=C3c3ccccc3)cc2c1", "TGI": "22.8 µM"}, {"smiles": "O=C(O)CSC1=NCCN1", "TGI": "> 100 µM"}, {"smiles": "Cc1ccc(NC(=O)c2ccoc2)cc1-c1ccc(C(=O)NCC2CC2)cc1", "GI50": "> 25 µM", "TGI": "> 25 µM"}, {"smiles": "COc1ccc2c(c1)c(-c1ccc(-c3cn(C)c4ccc(OC)cc34)s1)cn2C", "GI50": "> 100 µM", "TGI": "> 100 µM"}, {"smiles": "N#Cc1cnc2ccc(NCc3cnc[nH]3)cc2c1Nc1ccc(F)c(Cl)c1", "GI50": "1.15 µM", "TGI": "> 100 µM"}, {"smiles": "[Cu].c1ccc2c(c1)C1=NC2=NC2=NC(=NC3=NC(=NC4=NC(=N1)c1ccccc14)c1ccccc13)c1ccccc12", "GI50": "> 100 µM", "TGI": "> 100 µM"}, {"smiles": "O=C1/C(=C/c2cc(O)c(O)c(O)c2)Oc2cc(O)cc(OC3OC(CO)C(O)C(O)C3O)c21", "note": "(stereo not drawn)", "TGI": "> 100 µM"}, {"smiles": "O=[N+]([O-])c1ccc(Cl)c(C2CC(c3cccc4ccccc34)=Nc3ccccc3S2=O)c1", "note": "(stereo not drawn)", "TGI": "> 100 µM"}, {"smiles": "CC(NC(=O)c1ccc(Cl)c(Cl)c1)c1ccc(-c2ccccc2)cc1", "note": "(stereo not drawn)", "TGI": "> 100 µM"}, {"smiles": "O=C1C2C3SC(c4cc5ccccc5cc43)C2C(=O)N1c1ccccc1", "note": "(stereo not drawn)", "TGI": "> 100 µM"}, {"smiles": "CN1CCN(CCCOC(=O)c2c3c(n4ccccc24)C(=O)c2ncccc2C3=O)CC1", "GI50": "< 0.02 µM", "TGI": "5.34 µM"}]}]}
